These results are taken from the supplement of paper PMC9446081.

Among all 39,000 compounds or so, about 220 (0.56%) showed activity. Some of the results follow.
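Also: static incubation at 37 °C against the wild-type strain, values averaged over two biological replicates.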

In the assay the test system is Escherichia coli K-12 BW25113. Put plainly: relative growth (OD600 normalised to plate interquartile mean) (fraction); higher = less growth inhibition, active = 0.2 or less. The following applies: 50 µM; LB; incubation time: overnight (16-24 h).
On to `COc1ccc(NC(=O)Nc2ccc3c(c2)C(=O)N([C@@H](C)CO)C[C@@H](C)[C@H](CN(C)S(=O)(=O)c2cccs2)OCCCC[C@@H](C)O3)cc1`, for which the relative growth is inactive: 1.02.
As to `O=C(N[C@H]1CC=CC[C@H](CC(=O)N(CCO)Cc2ccccc2)C(=O)N[C@@H](Cc2ccccc2)COC1=O)OCC1c2ccccc2-c2ccccc21`, the relative growth was inactive: 0.969.
Consider `COc1ccc(S(=O)(=O)N(C)C[C@H]2Oc3ccc(NS(=O)(=O)c4cccs4)cc3C(=O)N([C@H](C)CO)C[C@H]2C)cc1`, for which the relative growth is inactive: 1.02.
For `CN(C)CCCC1(c2ccc(F)cc2)OCc2cc(C#N)ccc21.O=C(O)C(=O)O` (centres undefined), the relative growth was inactive: 1.08.
`Cc1c(C(=O)Nc2ccc(Oc3ccnc4cc(OCC(C)(C)O)ccc34)c(F)c2)c(=O)n(-c2ccccc2)n1C`: the relative growth is inactive: 0.961.
With `C[C@@H]1CN([C@H](C)CO)C(=O)c2cccc(NC(=O)Nc3ccc(C(F)(F)F)cc3)c2O[C@H]1CN(C)S(=O)(=O)c1ccc(Cl)cc1`, the relative growth is inactive: 0.748.
The figure for `C[C@H](CO)N1C[C@H](C)[C@H](CN(C)C(=O)NC2CCCCC2)Oc2ccc(NC(=O)Nc3ccc(C(F)(F)F)cc3)cc2CC1=O` is inactive: 1.03; for `C[C@@H]1CN([C@H](C)CO)C(=O)c2cc(NC(=O)Nc3cccc4ccccc34)ccc2O[C@@H](C)CCCCO[C@@H]1CN(C)C(=O)c1ccccc1` it is inactive: 1.03.
The figure for `C[C@@H]1CN([C@H](C)CO)C(=O)c2cc(C#Cc3cccnc3)cnc2O[C@H]1CN(C)S(C)(=O)=O` is inactive: 0.999; for `NCc1ccc2cc[nH]c(=O)c2c1` it is inactive: 1.01; for `CC(C)(C)[S@@](=O)N1Cc2cc(C(=O)NCc3ccccc3F)nc(-c3cccc(-c4ccncc4)c3)c2[C@H]1CCO` it is inactive: 1.01.
Take `C[C@@H]1CN([C@H](C)CO)C(=O)c2cccc(NC(=O)c3cnccn3)c2O[C@@H]1CN(C)Cc1ccncc1`: the relative growth is inactive: 0.983.
Turning to `C[C@@H]1CN([C@@H](C)CO)C(=O)c2cccc(NS(=O)(=O)c3ccccc3)c2O[C@H]1CN(C)Cc1ccc(Cl)c(Cl)c1`, the relative growth is inactive: 1.02.
In the case of `O=C(C[C@H]1CC[C@H]2[C@@H](COC[C@H](O)CN2S(=O)(=O)c2ccc(Cl)cc2)O1)N[C@H]1CCN(Cc2ccccc2)C1`, the relative growth is inactive: 1.02.
Consider `Cc1noc(C)c1S(=O)(=O)Nc1ccc2c(c1)CC(=O)N([C@@H](C)CO)C[C@H](C)[C@H](CN(C)C(=O)NC1CCCCC1)O2`, for which the relative growth is inactive: 1.03.
Regarding `C[C@@H]1CCCCO[C@H](CN(C)Cc2ccc(Cl)c(Cl)c2)[C@@H](C)CN([C@H](C)CO)C(=O)c2cc(NC(=O)Cc3ccccc3)ccc2O1`, the relative growth was inactive: 1.02.
Next, `C[C@@H]1CCCCO[C@@H](CN(C)C(=O)Nc2ccc3c(c2)OCO3)[C@H](C)CN([C@@H](C)CO)C(=O)c2cc(NC(=O)Cc3ccccc3)ccc2O1`: inactive: 1.03; `C[C@H]1CCCCO[C@H](CN(C)C(=O)NC2CCCCC2)[C@@H](C)CN([C@@H](C)CO)C(=O)c2cc(NC(=O)Nc3ccccc3)ccc2O1`: inactive: 1.
With `C[C@H]1CCCCO[C@@H](CN(C)C(=O)Cc2ccccc2)[C@@H](C)CN([C@@H](C)CO)C(=O)c2cc(NC(=O)CCC(F)(F)F)ccc2O1`, the relative growth was inactive: 0.984.
In the case of `CCCNC(=O)N(C)C[C@@H]1Oc2cc(C#Cc3cccc(F)c3)ccc2S(=O)(=O)N([C@@H](C)CO)C[C@@H]1C`, the relative growth was inactive: 0.992.
As for `CC1=CC2(CO)C(=O)[C@]3(CO3)C1[C@H]1[C@]2(C)C=C(CO)C(=O)[C@]12CO2` (some centres undefined), the relative growth is inactive: 0.857.
Turning to `COc1ccccc1S(=O)(=O)N1C[C@H](O)COC[C@@H]2O[C@@H](CC(=O)O)CC[C@H]21`, the relative growth was inactive: 0.997.
`C[C@H](NC(=O)C[C@H]1C=C[C@H](NC(=O)CN2CCOCC2)[C@H](CO)O1)c1ccccc1`: the relative growth is inactive: 1.01.
For the compound `COc1ccc(CC[C@@H](OC(=O)[C@H]2CCCCN2C(=O)Cc2ccccc2)c2cccc(OCC(=O)O)c2)cc1OC`, the relative growth is inactive: 0.943.
The figure for `O=C(C[C@H]1C[C@@H]2c3cc(NS(=O)(=O)c4ccc(F)cc4)ccc3O[C@@H]2[C@@H](CO)O1)NCc1ccncc1` is inactive: 0.99; for `C[C@@H]1CCCCO[C@H](CN(C)S(=O)(=O)c2cccs2)[C@@H](C)CN([C@H](C)CO)C(=O)c2cc(NC(=O)NC3CCCCC3)ccc2O1` it is inactive: 0.999.
Turning to `C[C@@H]1CN([C@H](C)CO)C(=O)Cc2cc(NC(=O)CCN3CCOCC3)ccc2O[C@H]1CN(C)C(=O)Nc1ccc(F)cc1`, the relative growth is inactive: 1.01.
For `CN(C)C(=O)c1ccc(-c2cccc(-c3nc(C(=O)NC4CCC4)cc4c3[C@H](CCO)N([S@@](=O)C(C)(C)C)C4)c2)cc1`, the relative growth was inactive: 0.984.
Next, `C[C@@H]1CN([C@@H](C)CO)S(=O)(=O)c2ccc(C#C[C@@H](C)O)cc2O[C@H]1CN(C)C(=O)CN(C)C`: inactive: 0.998; `COc1ccccc1C#Cc1ccc2c(c1)O[C@H](CN(C)Cc1cncnc1)[C@@H](C)CN([C@H](C)CO)S2(=O)=O`: inactive: 1.01; `CNC[C@@H]1Oc2ccc(NC(=O)Cn3cnnn3)cc2C(=O)N([C@H](C)CO)C[C@@H]1C`: inactive: 0.986.
As to `Cc1noc(C)c1S(=O)(=O)N(C)C[C@@H]1Oc2c(NS(=O)(=O)c3ccc(F)cc3)cccc2C(=O)N([C@H](C)CO)C[C@@H]1C`, the relative growth was inactive: 1.01.
Take `C=C(C)C1COc2cc3oc(=O)ccc3cc2O1` (centres undefined): the relative growth was inactive: 1.11.
For `C[C@H]1CN([C@@H](C)CO)C(=O)c2cccc(NC(=O)c3ccc(-c4nccs4)cc3)c2O[C@H]1CN(C)Cc1ccccc1`, the relative growth was inactive: 0.989.
In the case of `NC(Cc1cc(I)c(Oc2ccc(O)c(I)c2)c(I)c1)C(=O)O` (centres undefined), the relative growth is inactive: 1.07.
Take `C[C@@H]1CN([C@H](C)CO)C(=O)c2cccc(NC(=O)C3CCOCC3)c2O[C@H]1CN(C)Cc1ccc(C(=O)O)cc1`: the relative growth was inactive: 0.963.
For `CSc1ncc(F)c(N(CCO)CCO)n1`, the relative growth is inactive: 1.01.
Take `COCCN1C[C@H]2[C@H](OC)CCN(S(=O)(=O)c3cn(C)cn3)[C@H]2C1`: the relative growth was inactive: 1.01.
The figure for `C/C=C/COc1nc2c(c(=O)n(C)c(=O)n2C)n1C` is inactive: 0.994.
